Measurements: PubChem BioAssay AID1508624 (National Center for Advancing Translational Sciences (NCATS), 2021)
Screen size: about 48,000 compounds; about 120 (0.25%) were called active. Another 4% or so got no clear call; they are omitted. Calls come from the whole dose curve; as a rule, active = well fitted activation curve with a large enough effect; inconclusive = small, poorly fitted or top-dose-only effect, or another doubt; inactive = no such curve, though single readings can be large or run the other way. This is one part of the list.

Assay: Primary qHTS for Identification of Small Molecule Activators of Huntingtin-Antisense Promoter Activity; note: nearly all actives have a fitted effect of over 55% in size
Details: HEK293 HTT-AS promoter firefly luciferase reporter (activity 0% = vehicle and -100% = no light), 24 h; series mostly up to 57.5 µM; activity change, positive = activation: at the top concentration
In short: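 Firefly luciferase readout (Dual-Glo, 10 min RT) after 24 h, 37 °C compound exposure (final up to 57.5 uM) of HEK293 reporter cells cultured 24 h beforehand; PTC124 at 50 uM final as control inhibitor; activity scaled vehicle 0%, zero RLU -100%.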

Activity change, positive = activation, inactive:
CCc1cc2c(cc3c(=O)n(CC(=O)N4CCN(c5cccc(C)c5C)CC4)nc(CC)n32)s1 -4.13%, CCc1ccccc1NC(=O)CCC(=O)N1CC(C)Oc2ccc(C)cc21 (stereo unspecified) -12.6%, COc1ccc(CCNCc2c(C(=O)O)c(C)n(Cc3cccc(Cl)c3)c2C)c(OC)c1OC -11.1%, O=C(Cn1cc(C(=O)c2ccccc2)c(=O)c2cc3c(cc21)OCCO3)Nc1ccc(F)c(F)c1 -36.4%, COc1ccc(CCNC(=O)c2cc3c(=O)n(C)c4ccccc4c3s2)cc1OC -13.9%, Cc1ccc(C)c(N2CCN(S(=O)(=O)c3ccc(C(=O)N(C)C)s3)CC2)c1 -26.2%, O=C(Cn1cc(S(=O)(=O)Cc2ccccc2Cl)c2ccccc21)NCCc1ccccc1 -22.9%, COc1ccc(NC(=O)c2c(NC(=O)COc3ccccc3)sc3c2CCCCC3)cc1 -5.35%, CCOc1ccccc1CNS(=O)(=O)c1cc2c(cc1C)NC(=O)CO2 -16.2%, Cc1ccccc1CNC(=O)CCC(=O)N1CCSc2ccccc21 -17%, O=C(NCc1ccc(F)cc1)C(=O)Nc1ccc2nc3n(c(=O)c2c1)CCCCC3 -2%, CCn1nnc2cc(C(=O)Nc3cc(C)ccc3C)ccc21 -3.13%, Cc1ccc(-c2cc3ncc4c(n3n2)-c2cc(Cl)ccc2OC4)cc1 -8.05%, COc1ccc(NC(=O)CCNS(=O)(=O)c2ccc3c(c2)CCCC(=O)N3)cc1 -9.68%, COc1ccc(NC(=O)CC2C(=O)N(c3cccc(OC)c3)C(=O)N2CCC2=CCCCC2)cc1 (stereo unspecified) -53%, CCOc1ccc(CC(=O)NCc2ccc3c(c2)CCN3C(=O)c2ccccc2)cc1OCC -26.5%, Cc1ccc(Nc2nc3ccc(C(=O)c4ccccc4)cc3n3c(C)nnc23)c(C)c1 -2.49%, Cc1sc2ncn(CC(=O)N(C)c3ccc(C(C)C)cc3)c(=O)c2c1S(=O)(=O)N1CCC(C)CC1 -28.6%, COc1ccc(-c2noc(CC(=O)Nc3cc(OC)ccc3OC)n2)cc1 -27.7%, CC1CCC(NC(=O)C2(C)Cc3ccccc3C(=O)N2Cc2ccc(Cl)cc2)CC1 (stereo unspecified) -14.1%, CCCn1c(=O)c2sccc2n2c(CCCC(=O)N3CCN(c4cccc(Cl)c4)CC3)nnc12 -3.5%, CC(=O)c1cccc(NC(=O)CN2C(=O)CC(c3ccc(C)cc3C)=Nc3ccccc32)c1 -3.45%, O=C(/C=C/c1ccc(Cl)cc1)N1CCC(c2nc3ccccc3o2)CC1 24.1%, CCCCN(CC)CCCNC(=O)c1cn(CC)c2ccc(S(=O)(=O)N3CCc4ccccc4C3)cc2c1=O -12.7%, COc1ccc(NC(=O)c2ccco2)cc1NC(=O)c1ccc(C#N)cc1F -11.6%, O=C(NCCc1ccccc1)C1CCN(c2nc3ccccc3nc2C(F)(F)F)CC1 8.44%, CCCCCSc1nnc2c(n1)[nH]c1c(C)cccc12 7.67%, FC(F)(F)c1cc(Nc2nc3ccccc3c3nncn23)ccc1Cl -7.88%, COCCn1c(SCC(=O)c2ccc(C)cc2)nc2cc(C(=O)NC3CCCC3)ccc2c1=O 6.32%, COc1ccccc1N1CCN(c2ncnc3c2cnn3-c2ccc(C)cc2)CC1 -38.9%, CCCNC(=O)c1cnn(-c2ccc(C)c(C)c2)c1C1CCN(C(=O)OC(C)(C)C)CC1 -15.7%, Cc1cccc(CN2CCN(CC(=O)NCCc3ccc(Cl)cc3)C2=O)c1 -15.2%, Cc1cc(C)c(NC(=O)c2oc3c(c2C)-c2[nH]ncc2CC3)c(C)c1 -1.18%, Fc1ccccc1N1CCN(c2ncnc3onc(-c4ccc(Cl)cc4)c23)CC1 -33.2%, CCOC(=O)c1ccccc1NC(=O)CN1C(=O)CC(c2ccccc2)Sc2ccccc21 (stereo unspecified) -29.1%, COc1ccc(Cl)cc1NC(=O)CSc1nc2c(oc3ccccc32)c(=O)n1Cc1ccco1 -11.5%, CCCCOc1ccc(C(=O)NCc2cn3cccc(C)c3n2)cc1 -4.2%, Cc1cccc(-c2nc3scc(CCNS(=O)(=O)c4ccc(F)c(C(F)(F)F)c4)n3n2)c1 -27%, Cc1ccc(C(=O)Nc2ccc(C(=O)O)cc2)cc1S(=O)(=O)N1CCC(C)CC1 3.79%, CCCCOc1ccc(C(=O)NCCc2sc3nc(-c4ccc(OC)cc4)nn3c2C)cc1 0.589%, O=C(Nc1ccc(N2CCN(c3ccc(F)cc3)CC2)c(C(=O)O)c1)c1cccs1 18.3%, CCOc1cc2c(cc1OCC)C(CC(=O)O)N(C(=O)Nc1ccc(Br)c(C)c1)CC2 (stereo unspecified) 10.2%, CCN(CC)c1nn2c(=O)c(C(=O)NCCc3ccccc3C)cnc2s1 -21.1%, O=C(NCc1ccc(Cl)cc1)C1CCC(CNS(=O)(=O)c2ccccc2)CC1 (stereo unspecified) -23.8%, CCOc1ccc(N(C)C(=O)C2CCN(S(=O)(=O)c3c(C)noc3/C=C/c3ccc(C)cc3)CC2)cc1 -9.39%, Cn1c(=O)c2c(nc(CN3CCN(c4ccccc4F)CC3)n2Cc2ccc(F)cc2)n(C)c1=O -19.3%, CCOc1ccc(N(Cc2ccccc2)C(=O)c2nc(SC)ncc2Cl)cc1 -36.2%, O=c1c(S(=O)(=O)c2ccccc2)cn(Cc2ccccc2)c2cc(N3CCCC3)c(F)cc12 -7.08%, Cc1nn(C)c2c1c(C(F)(F)F)cc(=O)n2Cc1ccc(Br)cc1F -14%, Cc1cccc(NC(=O)CSc2nc3n[nH]c(C)c3c(=N)n2-c2cccc(Cl)c2)c1 -42.6%, Cc1cc(C)cc(C(=O)NCCc2sc(-c3ccc(F)cc3)nc2C)c1 -2.53%, COc1ccc(OC)c(C2CC(=O)Nc3c2c(=O)[nH]c2nc4ccccc4n32)c1 (stereo unspecified) 0.841%, CCOC(=O)C1CCN(CCC(=O)Nc2ccccc2OC)CC1 8.8%, N#Cc1ccc(NC(=O)COCc2cc(-c3ccco3)on2)cc1 -13.5%, CCCOc1ccc(C(=O)N2CCC(c3nc4ccccc4s3)CC2)cc1 -11.2%, O=C(C1CC1)N1CCc2cc(Br)cc(S(=O)(=O)Nc3ccc(F)c(F)c3)c21 -85.7%, CCc1ccc(/C=C(/C#N)c2nc(-c3ccc(C)cc3)cs2)cc1 -5.07%, O=S(=O)(NCC(c1ccco1)N1CCN(c2ccccc2)CC1)c1cc(F)ccc1F (stereo unspecified) -27.6%, Cc1cc(C)cc(N2CCn3c2nc2c3c(=O)n(Cc3c(F)cccc3Cl)c(=O)n2C)c1 -8.46%, O=C(Cn1c(=O)c(CNc2ccccc2)cc2cc3c(cc21)OCCO3)Nc1ccccc1Cl -14.3%, CCc1ccc2oc(-c3ccc(C)c(NC(=O)Cc4ccccc4)c3)nc2c1 23.5%
